Where a chain is given by its changes, count along the chain named. Some of the results follow.

Among the data in article PMC9911399, “Two distinct binding modes provide the RNA-binding protein RbFox with extraordinary sequence specificity” are binding signal values, retold here.

Sequences and labels used below:
B1: UGAGACU (DNA:RNA)
RNA: GGGAGACCGGAAUUCAGAUUGUCCUGAGACUUUAAAUCCCGUCGUAGCCACCA
DNA 1: CAATCTGAATTCCGGTCTCCC
DNA 2: TGGTGGCTACGACGGGATT
B2: ACGAAGC (DNA:RNA)
RNA: B1 RNA with U25A, G26C, A27G, G28A, C30G, U31C
DNA 1: CAATCTGAATTCCGGTCTCCC
DNA 2: TGGTGGCTACGACGGGATT
B3: UAUGGGC (DNA:RNA)
RNA: B1 RNA with G26A, A27U, A29G, C30G, U31C
DNA 1: CAATCTGAATTCCGGTCTCCC
DNA 2: TGGTGGCTACGACGGGATT
B4: UUCCGGA (DNA:RNA)
RNA: B1 RNA with G26U, A27C, G28C, A29G, C30G, U31A
DNA 1: CAATCTGAATTCCGGTCTCCC
DNA 2: TGGTGGCTACGACGGGATT
B5: CCUGUUU (DNA:RNA)
RNA: B1 RNA with U25C, G26C, A27U, A29U, C30U
DNA 1: CAATCTGAATTCCGGTCTCCC
DNA 2: TGGTGGCTACGACGGGATT
B6: UGACCCG (DNA:RNA)
RNA: B1 RNA with G28C, A29C, U31G
DNA 1: CAATCTGAATTCCGGTCTCCC
DNA 2: TGGTGGCTACGACGGGATT
B7: UGCGAAG (DNA:RNA)
RNA: B1 RNA with A27C, C30A, U31G
DNA 1: CAATCTGAATTCCGGTCTCCC
DNA 2: TGGTGGCTACGACGGGATT
B8: ACAAUCU (DNA:RNA)
RNA: B1 RNA with U25A, G26C, G28A, A29U
DNA 1: CAATCTGAATTCCGGTCTCCC
DNA 2: TGGTGGCTACGACGGGATT
B9: CACCUAG (DNA:RNA)
RNA: GGGAGACCGGAAUUCAGAUUGUCCCACCUAGUUAAAUCCCGUCGUAGCCACCA
DNA 1: CAATCTGAATTCCGGTCTCCC
DNA 2: TGGTGGCTACGACGGGATT
B10: CAAUGCU (DNA:RNA)
RNA: B1 RNA with U25C, G26A, G28U, A29G
DNA 1: CAATCTGAATTCCGGTCTCCC
DNA 2: TGGTGGCTACGACGGGATT
B11: GCGACUA (DNA:RNA)
RNA: GGGAGACCGGAAUUCAGAUUGUCCGCGACUAUUAAAUCCCGUCGUAGCCACCA
DNA 1: CAATCTGAATTCCGGTCTCCC
DNA 2: TGGTGGCTACGACGGGATT
B12: CAAAGAG (DNA:RNA)
RNA: B9 RNA with C27A, C28A, U29G
DNA 1: CAATCTGAATTCCGGTCTCCC
DNA 2: TGGTGGCTACGACGGGATT
B13: GAGAGGC (DNA:RNA)
RNA: B11 RNA with C26A, C29G, U30G, A31C
DNA 1: CAATCTGAATTCCGGTCTCCC
DNA 2: TGGTGGCTACGACGGGATT
B14: CAGCCCG (DNA:RNA)
RNA: B9 RNA with C27G, U29C, A30C
DNA 1: CAATCTGAATTCCGGTCTCCC
DNA 2: TGGTGGCTACGACGGGATT
B15: AUGUGCG (DNA:RNA)
RNA: B9 RNA with C25A, A26U, C27G, C28U, U29G, A30C
DNA 1: CAATCTGAATTCCGGTCTCCC
DNA 2: TGGTGGCTACGACGGGATT
B16: GCCGGCU (DNA:RNA)
RNA: B1 RNA with U25G, G26C, A27C, A29G
DNA 1: CAATCTGAATTCCGGTCTCCC
DNA 2: TGGTGGCTACGACGGGATT
B17: CCGGGCC (DNA:RNA)
RNA: B11 RNA with G25C, A28G, C29G, U30C, A31C
DNA 1: CAATCTGAATTCCGGTCTCCC
DNA 2: TGGTGGCTACGACGGGATT
B18: CUAUUUA (DNA:RNA)
RNA: B9 RNA with A26U, C27A, C28U, A30U, G31A
DNA 1: CAATCTGAATTCCGGTCTCCC
DNA 2: TGGTGGCTACGACGGGATT
B19: CUGGGUC (DNA:RNA)
RNA: B11 RNA with G25C, C26U, A28G, C29G, A31C
DNA 1: CAATCTGAATTCCGGTCTCCC
DNA 2: TGGTGGCTACGACGGGATT
B20: AGGUACA (DNA:RNA)
RNA: B1 RNA with U25A, A27G, G28U, U31A
DNA 1: CAATCTGAATTCCGGTCTCCC
DNA 2: TGGTGGCTACGACGGGATT
B21: GUAUUAU (DNA:RNA)
RNA: B9 RNA with C25G, A26U, C27A, C28U, G31U
DNA 1: CAATCTGAATTCCGGTCTCCC
DNA 2: TGGTGGCTACGACGGGATT
B22: UGGCAUG (DNA:RNA)
RNA: B1 RNA with A27G, G28C, C30U, U31G
DNA 1: CAATCTGAATTCCGGTCTCCC
DNA 2: TGGTGGCTACGACGGGATT
B23: AAUUCAA (DNA:RNA)
RNA: B9 RNA with C25A, C27U, C28U, U29C, G31A
DNA 1: CAATCTGAATTCCGGTCTCCC
DNA 2: TGGTGGCTACGACGGGATT
B24: UAGGCUG (DNA:RNA)
RNA: B11 RNA with G25U, C26A, A28G, A31G
DNA 1: CAATCTGAATTCCGGTCTCCC
DNA 2: TGGTGGCTACGACGGGATT
B25: UCCCCCU (DNA:RNA)
RNA: B1 RNA with G26C, A27C, G28C, A29C
DNA 1: CAATCTGAATTCCGGTCTCCC
DNA 2: TGGTGGCTACGACGGGATT
B26: AUUAAGG (DNA:RNA)
RNA: B9 RNA with C25A, A26U, C27U, C28A, U29A, A30G
DNA 1: CAATCTGAATTCCGGTCTCCC
DNA 2: TGGTGGCTACGACGGGATT
B27: CGGGAAU (DNA:RNA)
RNA: B1 RNA with U25C, A27G, C30A
DNA 1: CAATCTGAATTCCGGTCTCCC
DNA 2: TGGTGGCTACGACGGGATT
B28: GUCACUA (DNA:RNA)
RNA: B11 RNA with C26U, G27C
DNA 1: CAATCTGAATTCCGGTCTCCC
DNA 2: TGGTGGCTACGACGGGATT
B29: UGGUCGC (DNA:RNA)
RNA: B11 RNA with G25U, C26G, A28U, U30G, A31C
DNA 1: CAATCTGAATTCCGGTCTCCC
DNA 2: TGGTGGCTACGACGGGATT
B30: ACGGAGU (DNA:RNA)
RNA: B1 RNA with U25A, G26C, A27G, C30G
DNA 1: CAATCTGAATTCCGGTCTCCC
DNA 2: TGGTGGCTACGACGGGATT
B31: UAACAGU (DNA:RNA)
RNA: B1 RNA with G26A, G28C, C30G
DNA 1: CAATCTGAATTCCGGTCTCCC
DNA 2: TGGTGGCTACGACGGGATT

For the experiment, the target named is T1, RBFOX1 RRM (Homo sapiens, UniProt Q9NWB1 109-208).
T1 sequence: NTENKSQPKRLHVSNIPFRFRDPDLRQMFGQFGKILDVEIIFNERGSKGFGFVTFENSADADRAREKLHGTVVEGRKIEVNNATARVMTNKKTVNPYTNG
The experiment can be described thus: EMSA; HiTS-Eq, 1 nM pool, 10 min; buffer printed only for the single-RNA assays: 10 mM Tris pH 7.5, 150 mM NaCl, 3.4 mM EDTA, 0.001% NP-40, 30 C. The conditions noted are these: tags: His6 N-terminal (pET28a); label: 5' 32P. In a few lines:
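Purified wild-type or mutant RbFox RRM at increasing concentrations was equilibrated with 1 nM of 5′-radiolabelled RNA carrying 7 randomized nucleotides for 10 min in 50 µL. Unbound RNA was separated by 8% native PAGE and sequenced. Relative association constants came from read-count changes of each RNA species compared with the control reaction, normalised to the cognate motif.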
(In general: A gel shift assay detects complexes by their altered migration in electrophoresis.)
As for B1, the binding signal is 0.0154 KA relative to UGCAUGU.

As to B2, the binding signal is 0.00256 KA relative to UGCAUGU.

As for B3, the binding signal is 0.00477 KA relative to UGCAUGU.

In the case of B4, the binding signal is 0.00555 KA relative to UGCAUGU.

For B5, the binding signal is 0.0126 KA relative to UGCAUGU.

Regarding B6, the binding signal was 0.0101 KA relative to UGCAUGU.

With B7, the binding signal was 0.0251 KA relative to UGCAUGU.

Take B8: the binding signal is 0.000686 KA relative to UGCAUGU.

With B9, the binding signal is 0.0026 KA relative to UGCAUGU.

B10: the binding signal is 0.00496 KA relative to UGCAUGU.

Consider B11, for which the binding signal is 0.00785 KA relative to UGCAUGU.

Regarding B12, the binding signal was 0.00411 KA relative to UGCAUGU.

On to B13, for which the binding signal is 0.00793 KA relative to UGCAUGU.

For the molecule B14, the binding signal was 0.00699 KA relative to UGCAUGU.

On to B15, for which the binding signal is 0.0183 KA relative to UGCAUGU.

As for B16, the binding signal was 0.0209 KA relative to UGCAUGU.

In the case of B17, the binding signal is 0.0146 KA relative to UGCAUGU.

On to B18, for which the binding signal was 0.00555 KA relative to UGCAUGU.

Regarding B19, the binding signal is 0.0291 KA relative to UGCAUGU.

Take B20: the binding signal was 0.00746 KA relative to UGCAUGU.

As to B21, the binding signal was 0.0031 KA relative to UGCAUGU.

On to B22, for which the binding signal is 0.696 KA relative to UGCAUGU.

Take B23: the binding signal is 0.00106 KA relative to UGCAUGU.

B24: the binding signal is 0.0229 KA relative to UGCAUGU.

For the molecule B25, the binding signal was 0.00784 KA relative to UGCAUGU.

B26: the binding signal is 0.00849 KA relative to UGCAUGU.

As to B27, the binding signal is 0.0246 KA relative to UGCAUGU.

On to B28, for which the binding signal was 0.00277 KA relative to UGCAUGU.

As to B29, the binding signal was 0.016 KA relative to UGCAUGU.

Consider B30, for which the binding signal was 0.00654 KA relative to UGCAUGU.

Turning to B31, the binding signal is 0.00639 KA relative to UGCAUGU.
